Results taken from the supplement of paper PMC10126150.
Values marked as one replicate rest on one cluster of the flow cell; about a third of the high ones do not repeat.

System: ATP
Assay: switch fluorescence ratio, 500 uM ATP over buffer (Cy3 cluster intensity, sum of 5 cycles each) (fold (ratio)); higher = stronger signal-on switching upon ATP binding; sequences stand for … in TCGTCGGCAGCGTCAGATGTGTATAAGAGACAGTTTTTTTTTTTTTTTTTTTTTTTTT…TC
Settings: aptamer strand: ATP DNA aptamer (quencher-CACCTGGGGGAGTATTGCGGAGGAAGG + anchor), 100 nM annealed; ATP concentration: 500 uM; one replicate
How it was run: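 Per cluster, summed Cy3 intensity from the target cycles was divided by that from the buffer cycles to give the fluorescence ratio, then averaged per switch-domain sequence. Clusters outside 100-1000 RFU were excluded. The Cy3-labelled switching-strand clusters, on a modified Illumina MiSeq flow-cell, were annealed to 100 nM quencher-labelled ATP aptamer and imaged in selection buffer, then after 15 min with 500 uM ATP at 22 °C, for five cycles with NaOH stripping and re-annealing between them.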
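Further: ATP exposure 15 min at 22 °C before imaging.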

Row | Sequence | switch fluorescence ratio
1 | ATATCGAGAT | 0.958
2 | CCCACCGGCA | 1.24
3 | AGGGCATAGC | 1.01
4 | GGCTGTATCA | 1.03
5 | ACGGGAGTAC | 0.956
6 | TATTGCTCAG | 0.981
7 | TGTTGGCATC | 1.41
8 | GTACGCCAGT | 0.991
9 | TCGTTATGAC | 0.996
10 | AAGACCCTG | 1.06
11 | GGGACTAAGT | 1
12 | TTTGCCTTAT | 1.03
13 | CTTCTAGACT | 0.994
14 | GTGGCTTTTG | 0.98
15 | GGATGTAACG | 1.03
16 | CCTTAACCAG | 1.04
17 | AGGCTCCTAC | 1.12
18 | CTCGAACGTC | 0.948
19 | AGCGCTGAG | 1.02
20 | CAGTGCCCTT | 1.02
21 | CCAGGGACGT | 0.977
22 | GCCGGGGCA | 0.917
23 | TCGCCTGACA | 1.01
24 | ATATCAGTC | 1.04
25 | GGGAGTGCGT | 0.942
26 | GCTATGCAGC | 1.06

Row | Sequence | switch fluorescence ratio
27 | ATTTACCAGT | 1.1
28 | CTTCATGAAT | 1
29 | ACGGACCCCA | 1.43
30 | AAGCTTGTCT | 1.06
31 | GTGGTAGTAT | 0.983
32 | GGCGAAGACT | 0.987
33 | TGGCAGCGCT | 0.99
34 | CTCACACCAG | 1.15
35 | ATTTAATTCA | 0.976
36 | TAATTCTAAT | 0.962
37 | GTAATCACC | 1.09
38 | GGTCTAAGGT | 0.978
39 | AATCGGGGAG | 1.01
40 | GTTACAC | 1.08
41 | GCTAGCCGGT | 0.971
42 | TGCGGGCGGA | 0.97
43 | AGTTTTCAAC | 0.93
44 | TTCATCCCTA | 1.02
45 | TCGGAACTGC | 0.962
46 | AAGTGCCATT | 1.01
47 | AATACTAAAT | 0.986
48 | TAAGGGTACC | 1.04
49 | TAGTTAGTGC | 0.939
50 | GATCCAAATT | 1
51 | TCTATTTATA | 1.01
52 | TAGTTTAGCA | 0.945

Row | Sequence | switch fluorescence ratio
53 | AGTAAGTTAA | 1.05
54 | CTACTCCGTC | 1.4
55 | ACGGGCAGTA | 1.04
56 | AACAGTGAGA | 0.988
57 | GGCGATCACA | 0.964
58 | AAGGCAGGGA | 1.03
59 | GAACTGCCGT | 0.993
60 | TAACTAAATG | 0.992
61 | CGCGCAAGTC | 3.57
62 | CTTACGACGT | 1.09
63 | TAAGGGAGCG | 1.02
64 | CTCTGTTGTC | 1.02
65 | CATTGTATGC | 1.02
66 | CACGGGTAAG | 1.03
67 | TAGTAACCTT | 1.67
68 | GTAGGTTGGC | 0.991
69 | ACCTATGGGG | 1.14
70 | TGCCGCTGAA | 1.09
71 | CTTATTTTA | 0.998
72 | GGAAGATCTT | 1.01
73 | ACCCTCTTGC | 1.08
74 | ATTGGATGGC | 1.04
75 | CACCGTACTG | 1.58
76 | GGTCCATCTA | 1
77 | CACACAGGTA | 1.83
78 | ATGCTTGCTT | 1.05

Row | Sequence | switch fluorescence ratio
79 | TCGCCGGATA | 1
80 | GGTCGAGAAT | 0.982
81 | AGGTCAGAAA | 0.97
82 | TGATTGACGT | 1.05
83 | TAATAGATAA | 1.02
84 | ACTGCGGTA | 0.98
85 | CCCCATGCAT | 1.56
86 | GGTTGCAGCG | 0.987
87 | GTGTGCGAGC | 1.02
88 | AGTGATTTGA | 1.02
89 | CAGTGTCGA | 1.02
90 | CCGGGCCCTT | 1.02
91 | AAGTTTGTAA | 0.964
92 | GATAGAAGA | 1.02
93 | CGCACCGGGG | 1.07
94 | ACAATGCTTA | 1.03
95 | ACGAAAGTTA | 1.02
96 | GCAGGAGAAG | 1.01
97 | TATGCAATAG | 4.28
98 | GGTGTTGATA | 0.987
99 | CGGTTTATCT | 1.02
100 | TACCTGGGTG | 1.96
101 | CTTCGCTAAT | 3.97
102 | GTGAGGGCTA | 1.02
103 | TAACCTTGCT | 2.43
104 | GAGTCGACGA | 1.04

Row | Sequence | switch fluorescence ratio
105 | TGTTAAGAAC | 1
106 | TTGTTTGGC | 0.976
107 | GAGCCCCCGG | 0.999
108 | CAAATGGAGC | 1.03
109 | ACAATCGTTA | 0.966
110 | GCCTCTCGAG | 1.02
111 | TGAGTGTTAG | 0.982
112 | CCTTCCCATT | 1.93
113 | GTTGAATAGT | 1.01
114 | CGATGTGGGA | 1.02
115 | GGTTCGGT | 1
116 | CGCACGATTT | 1.35
117 | TTTCATGAGT | 0.978
118 | GATATTTCGC | 1.03
119 | GCTTTCCGTC | 1.06
120 | TCGTTCTCTC | 1.01
121 | GTGCTCCGGG | 1.07
122 | ATGGGTGAGA | 1.06
123 | GACCCGAGGC | 1.06
124 | AGGTCAGTGT | 0.974
125 | GATAGAGTAA | 0.923
126 | TCCTTGAGGG | 0.994
127 | GTTCCTCTTC | 1.03
128 | CAGAGAATCC | 1.03
129 | TATCGTTATG | 0.988
130 | TAAAGATTGG | 0.983

Row | Sequence | switch fluorescence ratio
131 | GGTGTGGGCT | 1.07
132 | TTCGATGCGT | 1.02
133 | ACGCCATTCC | 1.5
134 | CATCCGA | 1.38
135 | CCGGTAAAGA | 1
136 | CGAGTTGCCC | 0.988
137 | CTGATCGGGA | 1
138 | GGATACATGG | 1.06
139 | CTGGGGATGA | 0.982
140 | GGTGTATCCC | 0.968
141 | AAACTTTATA | 1.02
142 | AATGGCTTAT | 0.954
143 | GTATGGAG | 1.02
144 | CTAAGTAAAC | 1.08
145 | ATGCAACTC | 1.13
146 | ATCGCATAGG | 1.11
147 | GGAGTAGGTT | 0.99
148 | GAATCAGCCT | 1.14
149 | GCGTTAATGA | 0.961
150 | CGAAATATTC | 1.23
151 | CTCGTCAGGC | 1.22
152 | ACGACTCGGT | 1.09
153 | GGGTACGGTC | 0.979
154 | TACCACAGGA | 1.09
